{"source": "PubChem BioAssay (NCATS)", "note": "The inconclusive results got no clear call from the source; some entries with a clear call stand among them for comparison. Potencies of inconclusive entries are left out as doubtful fits. Active and inactive are the calls of the source. Calls follow the shape of the dose curve; as a rule, active = well fitted curve in the direction sought with a large enough effect; inconclusive = small, poorly fitted or top-dose-only effect, or another doubt; inactive = no such curve, though single readings can be large; an effect the other way counts as inactive or inconclusive. Potency is read from the fitted curve at half-maximal effect; tags tell the direction and shape of the fitted curve."}
{"target": "ATPase family AAA domain-containing protein 5 (Homo sapiens) (UniProt Q96QE3)", "sequence (Q96QE3 whole entry, looked up, the tested form may be a part)": "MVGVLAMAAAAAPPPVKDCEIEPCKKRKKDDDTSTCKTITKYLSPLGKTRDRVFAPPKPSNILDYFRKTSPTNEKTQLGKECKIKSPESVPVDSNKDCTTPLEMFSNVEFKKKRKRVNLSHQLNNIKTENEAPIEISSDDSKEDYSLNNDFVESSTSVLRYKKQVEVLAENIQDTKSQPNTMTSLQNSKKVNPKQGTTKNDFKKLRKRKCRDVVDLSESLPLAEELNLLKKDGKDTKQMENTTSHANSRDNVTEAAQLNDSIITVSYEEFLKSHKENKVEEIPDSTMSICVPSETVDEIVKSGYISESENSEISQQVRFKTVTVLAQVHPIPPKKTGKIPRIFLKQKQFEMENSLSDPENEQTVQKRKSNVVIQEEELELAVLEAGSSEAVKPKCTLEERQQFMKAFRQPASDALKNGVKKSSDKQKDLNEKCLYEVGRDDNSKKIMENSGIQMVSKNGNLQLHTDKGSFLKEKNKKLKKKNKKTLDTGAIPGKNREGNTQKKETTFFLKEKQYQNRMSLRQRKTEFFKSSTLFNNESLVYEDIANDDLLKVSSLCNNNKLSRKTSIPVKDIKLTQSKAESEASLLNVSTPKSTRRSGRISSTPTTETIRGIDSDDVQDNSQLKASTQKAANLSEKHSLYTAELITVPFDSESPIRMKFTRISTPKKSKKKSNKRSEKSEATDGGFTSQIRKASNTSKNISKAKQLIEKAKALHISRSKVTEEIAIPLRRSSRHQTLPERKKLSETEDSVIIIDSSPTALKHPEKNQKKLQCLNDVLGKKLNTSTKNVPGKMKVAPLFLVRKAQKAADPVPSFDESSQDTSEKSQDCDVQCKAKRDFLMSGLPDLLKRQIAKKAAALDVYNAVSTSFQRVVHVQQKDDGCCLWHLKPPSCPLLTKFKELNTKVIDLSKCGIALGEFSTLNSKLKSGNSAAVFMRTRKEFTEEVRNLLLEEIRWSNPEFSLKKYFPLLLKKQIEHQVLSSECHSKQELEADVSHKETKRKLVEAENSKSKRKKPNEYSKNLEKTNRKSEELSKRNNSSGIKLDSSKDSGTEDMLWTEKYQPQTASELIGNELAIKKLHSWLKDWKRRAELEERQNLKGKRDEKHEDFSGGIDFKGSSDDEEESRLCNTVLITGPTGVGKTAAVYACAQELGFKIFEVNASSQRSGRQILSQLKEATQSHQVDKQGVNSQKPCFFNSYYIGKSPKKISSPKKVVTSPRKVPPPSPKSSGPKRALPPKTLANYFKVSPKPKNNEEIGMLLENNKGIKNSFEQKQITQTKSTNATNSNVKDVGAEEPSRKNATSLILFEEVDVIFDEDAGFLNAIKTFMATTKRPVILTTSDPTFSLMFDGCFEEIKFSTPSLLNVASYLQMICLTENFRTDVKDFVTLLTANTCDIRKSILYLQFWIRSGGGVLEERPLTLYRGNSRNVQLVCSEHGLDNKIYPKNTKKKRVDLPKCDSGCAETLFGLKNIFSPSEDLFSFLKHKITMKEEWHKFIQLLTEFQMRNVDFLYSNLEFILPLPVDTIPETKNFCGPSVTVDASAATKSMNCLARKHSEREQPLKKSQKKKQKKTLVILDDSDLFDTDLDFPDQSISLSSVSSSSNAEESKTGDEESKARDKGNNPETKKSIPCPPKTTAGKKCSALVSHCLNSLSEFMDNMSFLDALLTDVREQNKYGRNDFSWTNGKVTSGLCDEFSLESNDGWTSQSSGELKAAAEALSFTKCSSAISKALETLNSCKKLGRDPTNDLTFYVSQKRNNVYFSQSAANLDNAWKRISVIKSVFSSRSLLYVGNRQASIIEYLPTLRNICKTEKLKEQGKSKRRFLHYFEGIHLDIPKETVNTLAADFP", "assay": "qHTS screen for small molecules that inhibit ELG1-dependent DNA repair in human embryonic kidney (HEK293T) cells expressing luciferase-tagged ELG1: Hit Confirmation using MMS Stimulated ELG1 (AID 624249); also: nearly all actives have a fitted effect of over 60% in size", "conditions": "HEK293T luciferase-tagged ELG1 level; series mostly up to 46.1 µM", "in_short": "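Reporter gene format: suppression of MMS-induced ELG1-luciferase signal in HEK293T cells. MMS is present at 10 µM final, compound incubation lasts 16 h, and detection is by Amplight luciferase reagent.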"}
{"smiles": "CC(Sc1nc(N2CCOCC2)c2c(c1C#N)CC(C)(C)OC2)C(=O)Nc1ccccc1", "note": "(stereo not given)", "Potency": "inactive"}
{"smiles": "Cc1ccc(C(=O)Nc2cccc3[nH]c(C(F)(F)F)nc23)cc1", "Potency": "active: 7.91 µM"}
{"smiles": "O=C(Nc1ccc(Br)cc1)c1ccc(F)c(S(=O)(=O)N2CCN(c3ccccn3)CC2)c1", "Potency": "inconclusive [inhibitor, single point]"}
{"smiles": "CCCC(=O)N1CCc2cc(OC)c(OC)cc2C1COc1ccccc1OC", "note": "(stereo not given)", "Potency": "inconclusive [inhibitor, single point]"}
{"smiles": "Cc1cc(NC(=O)c2cnn3c(C(F)(F)F)cc(-c4ccccc4)nc23)no1", "Potency": "inconclusive [inhibitor, single point]"}
{"tested_on": "not listed separately", "assay": "qHTS screen for small molecules that inhibit ELG1-dependent DNA repair: Hit Confirmation with 5FU Viability (AID 624250);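 also: viability measured 16 h after compound addition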", "conditions": "cell viability with 5-FU; series mostly up to 46.1 µM", "in_short": "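Viability by CellTiter-Glo after 16 h of compound exposure in the presence of 10 µM (final) 5-fluorouridine. Cells were ELG1-luc HEK293T, plated at 2000/well, dosed about 5 h post-seeding.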"}
{"smiles": "Cc1ccccc1-n1c(SCC(=O)c2c(N)n(C)c(=O)n(C)c2=O)nc2sc3c(c2c1=O)CCCC3", "Potency": "inconclusive [rising, full curve]"}
{"smiles": "COc1cc(-c2cc(C(=O)Nc3ccc(S(=O)(=O)NCc4ccco4)cc3)c3ccccc3n2)cc(OC)c1OC", "Potency": "inconclusive [rising, partial curve]"}
{"smiles": "Fc1ccccc1-c1csc(=Nc2cccnc2)n1CCCn1ccnc1", "Potency": "inactive"}
{"smiles": "CCOC(=O)N1CCN(C(=O)c2cc(COc3ccc4ncccc4c3)on2)CC1", "Potency": "inactive"}
{"smiles": "Cc1c(C(=O)NCc2ccco2)oc2ccc(S(=O)(=O)N3CCC4(CC3)OCCO4)cc12", "Potency": "inconclusive [rising, full curve]"}
{"smiles": "CCOC(=O)C1CCN(c2cc3c(cc2NC(=O)c2ccccc2Br)n(C)c(=O)n3C)CC1", "Potency": "inconclusive [rising, full curve, poor fit]"}
{"smiles": "O=C(Nc1ccccc1-c1nc2ccccc2[nH]1)c1ccc(N2C(=O)CCC2=O)cc1", "Potency": "inconclusive [rising, full curve]"}
{"smiles": "Cc1ccc(-n2nc(CN3CCOCC3)c(-c3ccccc3)c2N)cc1Cl", "Potency": "inconclusive [rising, full curve]"}
{"smiles": "COc1ccc(-c2nn(-c3ccccc3)cc2/C=C\\C(=O)N2CCOCC2)cc1[N+](=O)[O-]", "Potency": "inconclusive [rising, full curve]"}
{"smiles": "COc1nc(Nc2nc3ccccc3c(=O)[nH]2)nc2ccc(C)cc12", "Potency": "inconclusive [rising, full curve]"}
{"smiles": "CCN(CC)C(=O)c1ccc2c3c(cccc13)C(=O)N(CCc1ccc(OC)c(OC)c1)C2=O", "Potency": "inconclusive [cytotoxic, single point]"}
{"smiles": "NC(=O)c1sc2nc3c(c(-c4ccccc4)c2c1N)CCC3", "Potency": "inactive"}
{"smiles": "CCN(CC)S(=O)(=O)c1cccc(-n2c(O)c(C=Nc3ccccc3C(=O)O)c3ccccc3c2=O)c1", "Potency": "inactive"}
{"smiles": "CCn1nc(C(=O)Nc2nc(-c3ccccn3)cs2)c2ccccc2c1=O", "Potency": "inactive"}
{"smiles": "COc1ccc(N2CCN(C(=O)CN3CCN(c4nc(-c5ccc(F)cc5)cs4)CC3)CC2)cc1", "Potency": "inactive"}
{"smiles": "COc1ccc(C2=Nn3c(nnc3-c3ccncc3)SC2)cc1OC", "Potency": "inconclusive [rising, partial curve, poor fit]"}
{"smiles": "CC(=O)Nc1ccc(NC(=O)C(C)OC(=O)/C=C/c2cn(-c3ccccc3)nc2-c2cccnc2)cc1", "note": "(stereo not given)", "Potency": "inconclusive [rising, full curve]"}
{"smiles": "COc1ccccc1N1CCN(CC(=O)Nc2ccccc2C(=O)NC(C)c2ccccc2)CC1", "note": "(stereo not given)", "Potency": "inconclusive [rising, full curve, poor fit]"}
{"smiles": "CC1(C)Cc2c(c(N3CCOCC3)nc3sc(C(=O)N4CCCCC4)c(N)c23)CO1", "Potency": "inconclusive [rising, full curve]"}
{"smiles": "COc1ccc(-c2nn(-c3ccccc3)cc2C(=O)NCC(c2cccs2)N2CCOCC2)cc1", "note": "(stereo not given)", "Potency": "inconclusive [rising, full curve, poor fit]"}
{"smiles": "CCOc1ccc(C(C(=O)NCC2CCCO2)N(C(=O)c2snc(C(N)=O)c2N)c2ccc3c(c2)OCCO3)cc1", "note": "(stereo not given)", "Potency": "inconclusive [rising, full curve]"}
{"smiles": "O=C(Nc1ccc(S(=O)(=O)N2CCOCC2)cc1)c1ccc([N+](=O)[O-])s1", "Potency": "inconclusive [rising, full curve, poor fit]"}
{"smiles": "COc1ccc(C(=O)N/N=C/c2cc(Br)ccc2O)cc1OC", "Potency": "inactive"}
{"smiles": "C[C@H](CO)N1C[C@H](C)[C@@H](CN(C)C(=O)Nc2ccc(C(F)(F)F)cc2)Oc2c(NC(=O)Cc3ccccc3)cccc2C1=O", "Potency": "inconclusive [rising, full curve]"}
{"smiles": "COc1ccc(N2CCCn3c2nc2c3c(=O)n(CCc3ccccc3)c(=O)n2C)cc1", "Potency": "inconclusive [rising, partial curve, poor fit]"}
{"smiles": "Cn1c(=O)c2c(nc(CN3CCc4ccccc4C3)n2Cc2ccccc2F)n(C)c1=O", "Potency": "inconclusive [rising, full curve, poor fit]"}
{"smiles": "CCC(C)N(CC(=O)Nc1cccc(C)c1C)C(=O)CCl", "note": "(stereo not given)", "Potency": "inconclusive [cytotoxic, single point]"}
{"smiles": "CCC(CO)Oc1cc(NCc2ccccc2O)c2ncn(C(C)C)c2c1", "note": "(stereo not given)", "Potency": "inactive"}
{"smiles": "COc1ccc(CNC(=O)c2cccc(S(=O)(=O)N3CCN(c4ccc(F)cc4)CC3)c2)cc1", "Potency": "inactive"}
{"smiles": "CCOC(=O)C1CCN(c2cc3c(cc2NC(=O)c2ccc(F)cc2)n(C)c(=O)n3C)CC1", "Potency": "inconclusive [rising, full curve, poor fit]"}
{"smiles": "COc1cc(/C=C/C(=O)Nc2ccc3nc4n(c(=O)c3c2)CCCC4)cc(OC)c1OC", "Potency": "inconclusive [rising, partial curve]"}
{"smiles": "COC1=C2C[C@@H](C)C[C@H](OC)[C@H](O)[C@@H](C)/C=C(\\C)[C@H](OC(N)=O)[C@@H](OC)/C=C\\C=C(/C)C(=O)NC(=CC1=O)C2=O", "Potency": "inconclusive [cytotoxic, partial curve, poor fit]"}
{"smiles": "CN(C)S(=O)(=O)Oc1ccc(C(=O)Nc2ccc([N+](=O)[O-])cc2)cc1", "Potency": "inconclusive [rising, full curve]"}
{"smiles": "CCOc1ccccc1/C=C/c1onc(C)c1S(=O)(=O)N1CCC(C(=O)N2CCCCCC2)CC1", "Potency": "inconclusive [rising, full curve]"}
{"smiles": "Cc1nn(-c2ccccc2)c2c1C(O)n1c(nc3ccccc31)S2", "note": "(stereo not given)", "Potency": "inconclusive [cytotoxic, partial curve, poor fit]"}
